{"source": "PubChem BioAssay AID686978", "about": "(National Center for Advancing Translational Sciences (NCATS), 2013)", "note": "Out of some 420,000 compounds screened, about 64,000 (15%) were called active. This list was built around the results that the source calls inconclusive (neither active nor inactive); the mix of calls is not that of the screen. Calls come from the whole dose curve; as a rule, active = well fitted inhibition curve with a large enough effect; inconclusive = small, poorly fitted or top-dose-only effect; inactive = flat fitted curve, though single readings scatter. Potencies of inconclusive entries are left out as doubtful fits. % is set by controls: 0 for no effect and ±100 for the full control effect; potency is the fitted concentration of half-maximal effect; tags give direction and shape of the fitted curve.", "data": [{"assay": "qHTS for Inhibitors of human tyrosyl-DNA phosphodiesterase 1 (TDP1): qHTS in cells in absence of CPT; note: nearly all actives have a fitted effect of over 55% in size", "conditions": "DT40 Tdp1-/- hTDP1 cells, no CPT, ATP luminescence, 48 h; activity change, negative = growth inhibition: at 46.2 µM (top of the series)", "summary_of_the_method": "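Stably hTDP1-transfected Tdp1-null chicken DT40 cells were treated with library compounds minus camptothecin and grown for at least 48 hr at 37 °C, after which cellular ATP was quantified by luminescence.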", "values": [{"smiles": "COc1ccc(N2CCN(CC(=O)Nc3c(C)cc(C)cc3C)CC2)cc1", "Potency": "inconclusive [inhibitor, single point]"}, {"smiles": "O=C(CSc1nc2c(cnn2-c2ccc(F)cc2)c(=O)[nH]1)N1CCCCCC1", "activity change, negative = growth inhibition": "inactive: -16.2%"}, {"smiles": "CC(C)c1ccc(CNC(=O)C(=O)NCCCn2ccnc2)cc1", "activity change, negative = growth inhibition": "inactive: 1.04%"}, {"smiles": "CCc1ccc2[nH]c(=O)c(CN(CCCN3CCOCC3)C(=O)Nc3cccc(Cl)c3)cc2c1", "Potency": "active: 14.6 µM"}, {"smiles": "CC(C)(C)N1CC(c2nc3ccccc3n2CCOc2ccccc2)CC1=O", "note": "(stereo not drawn)", "Potency": "inconclusive [inhibitor, single point]"}, {"smiles": "Cc1ccc2c(C)c(C(=O)N(Cc3ccc(N(C)C)cc3)C3CCS(=O)(=O)C3)oc2c1", "note": "(stereo not drawn)", "Potency": "inconclusive [inhibitor, single point]"}, {"smiles": "CCc1cc(=O)oc2cc(OC(=O)CN3C(=O)NC4(CCCC4)C3=O)ccc12", "activity change, negative = growth inhibition": "inconclusive: -33.2% [inhibitor]"}, {"smiles": "COc1ccc(S(=O)(=O)N(n2c(C)nnc2-n2nc(C)cc2C)S(=O)(=O)c2ccc(OC)cc2)cc1", "activity change, negative = growth inhibition": "inactive: -3.27%"}, {"smiles": "COc1cc(NC(=O)Cn2ncc3c2-c2ccccc2OC3)cc(OC)c1OC", "Potency": "inconclusive [inhibitor, single point]"}, {"smiles": "Cc1ccc(-c2c[n+](CC(=O)Nc3nc(-c4ccccc4)cs3)c3n2CCC3)cc1", "Potency": "active: 18.4 µM"}, {"smiles": "O=C1Cc2cc(NS(=O)(=O)c3cc(F)ccc3F)cc3c2N1CCC3", "Potency": "inconclusive [inhibitor, single point]"}, {"smiles": "CCOc1ccccc1CNC(=O)c1cnc2c(-c3ccc(OCC)c(OCC)c3)c(C)nn2c1C", "Potency": "active: 11.6 µM"}, {"smiles": "Cc1ccc(S(=O)(=O)N2C[C@H]3[C@H]4C(=O)N(Cc5ccccc5)C(=O)[C@H]4CC(=O)[C@H]3[C@@H]2c2ccccc2F)cc1", "Potency": "inconclusive [inhibitor, single point]"}, {"smiles": "CCc1ccc(NC(=O)CSc2ccc(-c3ccco3)nn2)cc1", "Potency": "inconclusive [inhibitor, single point]"}, {"smiles": "COc1ccc(-c2cc(=O)oc3c(C)c(OCC(=O)NCC4CCC(C(=O)O)CC4)ccc23)cc1", "note": "(stereo not drawn)", "Potency": "inconclusive [inhibitor, partial curve, poor fit]"}, {"smiles": "COc1ccc(C(=O)NC2CCN(CC(=O)N3CCCCC3)CC2)cc1", "activity change, negative = growth inhibition": "inactive: -28.2%"}, {"smiles": "O=C(Cn1cc(SCc2ccccc2)c2ccccc21)N1CCCCCC1", "Potency": "inconclusive [inhibitor, single point]"}, {"smiles": "COc1cccc(CNc2ccc(N3CCCCC3)cc2)c1OC", "Potency": "inconclusive [inhibitor, partial curve, poor fit]"}]}]}
